{"source": "the supplement of paper PMC8728848", "binders": {"B1": {"name": "DC-Sign (Homo sapiens), Q9NNX6 (protein)", "chain": "MSDSKEPRLQQLGLLEEEQLRGLGFRQTRGYKSLAGCLGHGPLVLQLLSFTLLAGLLVQVSKVPSSISQEQSRQDAIYQNLTQLKAAVGELSEKSKLQEIYQELTQLKAAVGELPEKSKLQEIYQELTRLKAAVGELPEKSKLQEIYQELTWLKAAVGELPEKSKMQEIYQELTRLKAAVGELPEKSKQQEIYQELTRLKAAVGELPEKSKQQEIYQELTRLKAAVGELPEKSKQQEIYQELTQLKAAVERLCHPCPWEWTFFQGNCYFMSNSQRNWHDSITACKEVGAQLVVIKSAEEQNFLQLQSSRSNRFTWMGLSDLNQEGTWQWVDGSPLLPSFKQYWNRGEPNNVGEEDCAEFSGNGWNDDKCNLAKFWICKKSAASCSRDEEQFLSPAPATPNPPPA"}}, "assay_in_all_cases": "glycan array binding signal (z-score within array); higher = stronger binding", "details_in_all_cases": "glycan notation: IUPAC condensed, linker removed", "key": {"[1]": {"target": "Neu5Ac(a2-6)GlcNAc(b1-4)GlcNAc(b1-4)GlcNAc", "outline": "(§1)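 Arrays were curated from the Consortium for Functional Glycomics database, 3228 in total, and kept only where the protein sequence was available. Binding is expressed as a within-array Z-score. This score was averaged across arrays of the same protein sequence at different concentrations or buffers and across linkers, and negative values can be read as non-binding.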"}, "Neu5Ac(a2-8)Neu5Ac": {"target": "Neu5Ac(a2-8)Neu5Ac", "outline": "as §1"}, "[2]": {"target": "Neu5Ac(a2-8)Neu5Ac(a2-3)Gal(b1-3)GalNAc(b1-4)[Neu5Ac(a2-3)]Gal(b1-4)Glc", "outline": "as §1"}, "[3]": {"target": "Neu5Ac(a2-8)Neu5Ac(a2-3)Gal(b1-3)GalNAc(b1-4)[Neu5Ac(a2-8)Neu5Ac(a2-3)]Gal(b1-4)Glc", "outline": "as §1"}, "[4]": {"target": "Neu5Ac(a2-8)Neu5Ac(a2-3)Gal(b1-4)Glc", "outline": "as §1"}, "[5]": {"target": "Neu5Ac(a2-8)Neu5Ac(a2-3)Gal(b1-4)GlcNAc", "outline": "as §1"}, "[6]": {"target": "Neu5Ac(a2-8)Neu5Ac(a2-3)[Gal(b1-3)GalNAc(b1-4)]Gal(b1-4)Glc", "outline": "as §1"}, "[7]": {"target": "Neu5Ac(a2-8)Neu5Ac(a2-3)[GalNAc(b1-4)]Gal(b1-4)Glc", "outline": "as §1"}, "[8]": {"target": "Neu5Ac(a2-8)Neu5Ac(a2-8)Neu5Ac", "outline": "as §1"}, "[9]": {"target": "Neu5Ac(a2-8)Neu5Ac(a2-8)Neu5Ac(a2-3)Gal(b1-4)Glc", "outline": "as §1"}, "[10]": {"target": "Neu5Ac(a2-8)Neu5Ac(a2-8)Neu5Ac(a2-3)[Gal(b1-3)GalNAc(b1-4)]Gal(b1-4)Glc", "outline": "as §1"}, "[11]": {"target": "Neu5Ac(a2-8)Neu5Ac(a2-8)Neu5Ac(a2-3)[GalNAc(b1-4)]Gal(b1-4)Glc", "outline": "as §1"}, "[12]": {"target": "Neu5Ac(a2-8)Neu5Ac(a2-8)Neu5Ac(a2-8)Neu5Ac(a2-3)[GalNAc(b1-4)]Gal(b1-4)Glc", "outline": "as §1"}, "[13]": {"target": "Neu5Ac(a2-8)Neu5Gc(a2-3)Gal(b1-4)GlcNAc", "outline": "as §1"}, "[14]": {"target": "Neu5Ac(b2-6)Gal(b1-4)GlcNAc", "outline": "as §1"}, "Neu5Ac(b2-6)GalNAc": {"target": "Neu5Ac(b2-6)GalNAc", "outline": "as §1"}, "[15]": {"target": "Neu5Ac9Ac(a2-3)Gal(b1-3)GlcNAc", "outline": "as §1"}, "[16]": {"target": "Neu5Ac9Ac(a2-3)Gal(b1-4)GlcNAc", "outline": "as §1"}, "[17]": {"target": "Neu5Ac9Ac(a2-6)Gal(b1-4)GlcNAc", "outline": "as §1"}, "[18]": {"target": "Neu5Gc(a2-3)Gal(b1-3)GlcNAc", "outline": "as §1"}, "[19]": {"target": "Neu5Gc(a2-3)Gal(b1-3)[Fuc(a1-4)]GlcNAc", "outline": "as §1"}, "Neu5Gc(a2-3)Gal(b1-4)Glc": {"target": "Neu5Gc(a2-3)Gal(b1-4)Glc", "outline": "as §1"}, "[20]": {"target": "Neu5Gc(a2-3)Gal(b1-4)GlcNAc", "outline": "as §1"}, "[21]": {"target": "Neu5Gc(a2-3)Gal(b1-4)GlcNAc(b1-3)Gal(b1-4)GlcNAc(b1-2)Man(a1-3)[Neu5Gc(a2-3)Gal(b1-4)GlcNAc(b1-3)Gal(b1-4)GlcNAc(b1-2)Man(a1-6)]Man(b1-4)GlcNAc(b1-4)GlcNAc", "outline": "as §1"}, "[22]": {"target": "Neu5Gc(a2-3)Gal(b1-4)[Fuc(a1-3)]GlcNAc", "outline": "as §1"}, "[23]": {"target": "Neu5Gc(a2-6)Gal(b1-4)GlcNAc", "outline": "as §1"}, "Neu5Gc(a2-6)GalNAc": {"target": "Neu5Gc(a2-6)GalNAc", "outline": "as §1"}, "[24]": {"target": "Neu5Gc(a2-8)Neu5Ac(a2-3)Gal(b1-4)GlcNAc", "outline": "as §1"}, "[25]": {"target": "Neu5Gc(a2-8)Neu5Gc(a2-3)Gal(b1-4)GlcNAc", "outline": "as §1"}, "[26]": {"target": "Neu5Gc(a2-8)Neu5Gc(a2-3)Gal(b1-4)GlcNAc(b1-3)Gal(b1-4)GlcNAc", "outline": "as §1"}, "[27]": {"target": "Neu5Gc(a2-8)Neu5Gc(a2-6)Gal(b1-4)GlcNAc", "outline": "as §1"}, "[28]": {"target": "Neu5Gc(b2-6)Gal(b1-4)GlcNAc", "outline": "as §1"}}, "note": "The other results are listed elsewhere or left out.", "data": [{"binder": "B1", "values": [{"measurement": "glycan array binding signal (z-score)", "setting": "[1]", "value": -0.196}, {"measurement": "glycan array binding signal (z-score)", "setting": "Neu5Ac(a2-8)Neu5Ac", "value": -0.155}, {"measurement": "glycan array binding signal (z-score)", "setting": "[2]", "value": -0.184}, {"measurement": "glycan array binding signal (z-score)", "setting": "[3]", "value": -0.155}, {"measurement": "glycan array binding signal (z-score)", "setting": "[4]", "value": -0.177}, {"measurement": "glycan array binding signal (z-score)", "setting": "[5]", "value": 0.033}, {"measurement": "glycan array binding signal (z-score)", "setting": "[6]", "value": -0.152}, {"measurement": "glycan array binding signal (z-score)", "setting": "[7]", "value": -0.189}, {"measurement": "glycan array binding signal (z-score)", "setting": "[8]", "value": -0.152}, {"measurement": "glycan array binding signal (z-score)", "setting": "[9]", "value": -0.187}, {"measurement": "glycan array binding signal (z-score)", "setting": "[10]", "value": -0.167}, {"measurement": "glycan array binding signal (z-score)", "setting": "[11]", "value": -0.192}, {"measurement": "glycan array binding signal (z-score)", "setting": "[12]", "value": -0.19}, {"measurement": "glycan array binding signal (z-score)", "setting": "[13]", "value": 0}, {"measurement": "glycan array binding signal (z-score)", "setting": "[14]", "value": -0.118}, {"measurement": "glycan array binding signal (z-score)", "setting": "Neu5Ac(b2-6)GalNAc", "value": -0.19}, {"measurement": "glycan array binding signal (z-score)", "setting": "[15]", "value": -0.187}, {"measurement": "glycan array binding signal (z-score)", "setting": "[16]", "value": -0.175}, {"measurement": "glycan array binding signal (z-score)", "setting": "[17]", "value": -0.173}, {"measurement": "glycan array binding signal (z-score)", "setting": "[18]", "value": -0.195}, {"measurement": "glycan array binding signal (z-score)", "setting": "[19]", "value": -0.072}, {"measurement": "glycan array binding signal (z-score)", "setting": "Neu5Gc(a2-3)Gal(b1-4)Glc", "value": -0.174}, {"measurement": "glycan array binding signal (z-score)", "setting": "[20]", "value": -0.144}, {"measurement": "glycan array binding signal (z-score)", "setting": "[21]", "value": -0.136}, {"measurement": "glycan array binding signal (z-score)", "setting": "[22]", "value": -0.16}, {"measurement": "glycan array binding signal (z-score)", "setting": "[23]", "value": -0.172}, {"measurement": "glycan array binding signal (z-score)", "setting": "Neu5Gc(a2-6)GalNAc", "value": -0.159}, {"measurement": "glycan array binding signal (z-score)", "setting": "[24]", "value": 0.02}, {"measurement": "glycan array binding signal (z-score)", "setting": "[25]", "value": -0.075}, {"measurement": "glycan array binding signal (z-score)", "setting": "[26]", "value": -0.179}, {"measurement": "glycan array binding signal (z-score)", "setting": "[27]", "value": -0.061}, {"measurement": "glycan array binding signal (z-score)", "setting": "[28]", "value": -0.179}]}]}
